Here are results for 31 molecules from PMC9911399, “Two distinct binding modes provide the RNA-binding protein RbFox with extraordinary sequence specificity”.

Substitutions are numbered along the chain they refer to; changes in the protein carry UniProt numbers. Some of the results follow.

T1: RBFOX1 RRM RbFoxmut (Fox-RRM*) (Homo sapiens, UniProt Q9NWB1 109-208, R118D;E147R;N151S;E152T)
T1 sequence: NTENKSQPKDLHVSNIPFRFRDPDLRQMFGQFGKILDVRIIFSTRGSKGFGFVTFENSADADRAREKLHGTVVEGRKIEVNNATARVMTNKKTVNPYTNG

B1: ACUAUAU (DNA:RNA)
RNA: GGGAGACCGGAAUUCAGAUUGUCCACUAUAUUUAAAUCCCGUCGUAGCCACCA
DNA 1: CAATCTGAATTCCGGTCTCCC
DNA 2: TGGTGGCTACGACGGGATT
B2: AGCCGAU (DNA:RNA)
RNA: B1 RNA with C26G, U27C, A28C, U29G
DNA 1: CAATCTGAATTCCGGTCTCCC
DNA 2: TGGTGGCTACGACGGGATT
B3: AAUUACU (DNA:RNA)
RNA: B1 RNA with C26A, A28U, U29A, A30C
DNA 1: CAATCTGAATTCCGGTCTCCC
DNA 2: TGGTGGCTACGACGGGATT
B4: GUUAACU (DNA:RNA)
RNA: B1 RNA with A25G, C26U, U29A, A30C
DNA 1: CAATCTGAATTCCGGTCTCCC
DNA 2: TGGTGGCTACGACGGGATT
B5: UUAGACC (DNA:RNA)
RNA: GGGAGACCGGAAUUCAGAUUGUCCUUAGACCUUAAAUCCCGUCGUAGCCACCA
DNA 1: CAATCTGAATTCCGGTCTCCC
DNA 2: TGGTGGCTACGACGGGATT
B6: CACGCGU (DNA:RNA)
RNA: B1 RNA with A25C, C26A, U27C, A28G, U29C, A30G
DNA 1: CAATCTGAATTCCGGTCTCCC
DNA 2: TGGTGGCTACGACGGGATT
B7: GCACAGA (DNA:RNA)
RNA: B5 RNA with U25G, U26C, G28C, C30G, C31A
DNA 1: CAATCTGAATTCCGGTCTCCC
DNA 2: TGGTGGCTACGACGGGATT
B8: CCCUGCG (DNA:RNA)
RNA: B1 RNA with A25C, U27C, A28U, U29G, A30C, U31G
DNA 1: CAATCTGAATTCCGGTCTCCC
DNA 2: TGGTGGCTACGACGGGATT
B9: GGUAGCU (DNA:RNA)
RNA: B1 RNA with A25G, C26G, U29G, A30C
DNA 1: CAATCTGAATTCCGGTCTCCC
DNA 2: TGGTGGCTACGACGGGATT
B10: GGGAGGU (DNA:RNA)
RNA: B1 RNA with A25G, C26G, U27G, U29G, A30G
DNA 1: CAATCTGAATTCCGGTCTCCC
DNA 2: TGGTGGCTACGACGGGATT
B11: UUCGAGU (DNA:RNA)
RNA: B5 RNA with A27C, C30G, C31U
DNA 1: CAATCTGAATTCCGGTCTCCC
DNA 2: TGGTGGCTACGACGGGATT
B12: CUACAUC (DNA:RNA)
RNA: B5 RNA with U25C, G28C, C30U
DNA 1: CAATCTGAATTCCGGTCTCCC
DNA 2: TGGTGGCTACGACGGGATT
B13: GAGUUAA (DNA:RNA)
RNA: B1 RNA with A25G, C26A, U27G, A28U, U31A
DNA 1: CAATCTGAATTCCGGTCTCCC
DNA 2: TGGTGGCTACGACGGGATT
B14: CGCGCUC (DNA:RNA)
RNA: B5 RNA with U25C, U26G, A27C, A29C, C30U
DNA 1: CAATCTGAATTCCGGTCTCCC
DNA 2: TGGTGGCTACGACGGGATT
B15: CGAGGGC (DNA:RNA)
RNA: B5 RNA with U25C, U26G, A29G, C30G
DNA 1: CAATCTGAATTCCGGTCTCCC
DNA 2: TGGTGGCTACGACGGGATT
B16: CAAUGUA (DNA:RNA)
RNA: B5 RNA with U25C, U26A, G28U, A29G, C30U, C31A
DNA 1: CAATCTGAATTCCGGTCTCCC
DNA 2: TGGTGGCTACGACGGGATT
B17: UCCUGUA (DNA:RNA)
RNA: B1 RNA with A25U, U27C, A28U, U29G, A30U, U31A
DNA 1: CAATCTGAATTCCGGTCTCCC
DNA 2: TGGTGGCTACGACGGGATT
B18: AUAGCUU (DNA:RNA)
RNA: B5 RNA with U25A, A29C, C30U, C31U
DNA 1: CAATCTGAATTCCGGTCTCCC
DNA 2: TGGTGGCTACGACGGGATT
B19: GGGAAGG (DNA:RNA)
RNA: B1 RNA with A25G, C26G, U27G, U29A, A30G, U31G
DNA 1: CAATCTGAATTCCGGTCTCCC
DNA 2: TGGTGGCTACGACGGGATT
B20: ACUUGAC (DNA:RNA)
RNA: B1 RNA with A28U, U29G, U31C
DNA 1: CAATCTGAATTCCGGTCTCCC
DNA 2: TGGTGGCTACGACGGGATT
B21: ACACUCC (DNA:RNA)
RNA: B1 RNA with U27A, A28C, A30C, U31C
DNA 1: CAATCTGAATTCCGGTCTCCC
DNA 2: TGGTGGCTACGACGGGATT
B22: UUUCGGG (DNA:RNA)
RNA: B5 RNA with A27U, G28C, A29G, C30G, C31G
DNA 1: CAATCTGAATTCCGGTCTCCC
DNA 2: TGGTGGCTACGACGGGATT
B23: CGCACGU (DNA:RNA)
RNA: B1 RNA with A25C, C26G, U27C, U29C, A30G
DNA 1: CAATCTGAATTCCGGTCTCCC
DNA 2: TGGTGGCTACGACGGGATT
B24: GAAACAC (DNA:RNA)
RNA: B1 RNA with A25G, C26A, U27A, U29C, U31C
DNA 1: CAATCTGAATTCCGGTCTCCC
DNA 2: TGGTGGCTACGACGGGATT
B25: CGGUACA (DNA:RNA)
RNA: B5 RNA with U25C, U26G, A27G, G28U, C31A
DNA 1: CAATCTGAATTCCGGTCTCCC
DNA 2: TGGTGGCTACGACGGGATT
B26: GACUGCU (DNA:RNA)
RNA: B1 RNA with A25G, C26A, U27C, A28U, U29G, A30C
DNA 1: CAATCTGAATTCCGGTCTCCC
DNA 2: TGGTGGCTACGACGGGATT
B27: CCUCUAG (DNA:RNA)
RNA: B1 RNA with A25C, A28C, U31G
DNA 1: CAATCTGAATTCCGGTCTCCC
DNA 2: TGGTGGCTACGACGGGATT
B28: UCAUAAG (DNA:RNA)
RNA: B5 RNA with U26C, G28U, C30A, C31G
DNA 1: CAATCTGAATTCCGGTCTCCC
DNA 2: TGGTGGCTACGACGGGATT
B29: UAACUCU (DNA:RNA)
RNA: B5 RNA with U26A, G28C, A29U, C31U
DNA 1: CAATCTGAATTCCGGTCTCCC
DNA 2: TGGTGGCTACGACGGGATT
B30: CGCCUAG (DNA:RNA)
RNA: B1 RNA with A25C, C26G, U27C, A28C, U31G
DNA 1: CAATCTGAATTCCGGTCTCCC
DNA 2: TGGTGGCTACGACGGGATT
B31: UCGACCG (DNA:RNA)
RNA: B1 RNA with A25U, U27G, U29C, A30C, U31G
DNA 1: CAATCTGAATTCCGGTCTCCC
DNA 2: TGGTGGCTACGACGGGATT

This assay has as its target T1, RBFOX1 RRM RbFoxmut (Fox-RRM*). Description: EMSA; HiTS-Eq, 1 nM pool, 10 min; buffer printed only for the single-RNA assays: 10 mM Tris pH 7.5, 150 mM NaCl, 3.4 mM EDTA, 0.001% NP-40, 30 C. Particulars: tags: His6 N-terminal (pET28a); label: 5' 32P. The essentials: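 Purified RbFox RRM (wild type or mutant) was equilibrated for 10 min in 50 µL with 1 nM of a 5′-radiolabelled pool of RNA with 7 randomized nucleotides, its flanks annealed to DNA oligonucleotides, across increasing protein concentrations. Free RNA was separated by 8% native PAGE, excised, reverse-transcribed, PCR-barcoded and sequenced on an Illumina HiSeq 2500. Relative association constants came from read-count changes of each variant against the control reaction, normalised to the cognate motif.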
As for B1, the binding signal is 0.123 KA relative to UGCAUGU.
The result for B2 reads 0.087 KA relative to UGCAUGU; that for B3, 0.111 KA relative to UGCAUGU; that for B4, 0.0977 KA relative to UGCAUGU.
The result for B5 reads 0.0636 KA relative to UGCAUGU.
The result for B6 reads 0.131 KA relative to UGCAUGU.
With B7, the binding signal was 0.0953 KA relative to UGCAUGU.
Consider B8, for which the binding signal was 0.123 KA relative to UGCAUGU.
For the molecule B9, the binding signal was 0.0558 KA relative to UGCAUGU.
Consider B10, for which the binding signal was 0.0973 KA relative to UGCAUGU.
Turning to B11, the binding signal was 0.133 KA relative to UGCAUGU.
The result for B12 reads 0.0565 KA relative to UGCAUGU.
The result for B13 reads 0.0978 KA relative to UGCAUGU; that for B14, 0.0689 KA relative to UGCAUGU; that for B15, 0.0676 KA relative to UGCAUGU.
Next, B16: 0.134 KA relative to UGCAUGU; B17: 0.152 KA relative to UGCAUGU; B18: 0.0942 KA relative to UGCAUGU.
In the case of B19, the binding signal was 0.0684 KA relative to UGCAUGU.
Regarding B20, the binding signal is 0.151 KA relative to UGCAUGU.
The result for B21 reads 0.0902 KA relative to UGCAUGU; that for B22, 0.0763 KA relative to UGCAUGU.
Next, B23: 0.241 KA relative to UGCAUGU; B24: 0.0537 KA relative to UGCAUGU.
Next, B25: 0.0855 KA relative to UGCAUGU.
With B26, the binding signal was 0.124 KA relative to UGCAUGU.
Next, B27: 0.112 KA relative to UGCAUGU; B28: 0.119 KA relative to UGCAUGU; B29: 0.0488 KA relative to UGCAUGU.
For the molecule B30, the binding signal is 0.14 KA relative to UGCAUGU.
The result for B31 reads 0.103 KA relative to UGCAUGU.
